Results: PMC6919601, “Identification of Plasmodium dipeptidyl aminopeptidase allosteric inhibitors by high throughput screening” (PLoS ONE, 2019)
The whole screen tested about 110,000 compounds, of which about 230 (0.21%) showed an effect of 50% or more. The list shows a part of the results.

target: DPAP1 (Plasmodium falciparum, UniProt Q8IIJ9); test: primary screen, percent inhibition; read by cleavage of a fluorogenic dipeptide substrate; higher = more effect of the substance; design: species or system P. falciparum D10 trophozoite lysates; single well
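Also: 30 min substrate incubation versus DMSO and 10 µM JCP410 controls.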

DPAP1, sequence (Q8IIJ9 whole entry, looked up): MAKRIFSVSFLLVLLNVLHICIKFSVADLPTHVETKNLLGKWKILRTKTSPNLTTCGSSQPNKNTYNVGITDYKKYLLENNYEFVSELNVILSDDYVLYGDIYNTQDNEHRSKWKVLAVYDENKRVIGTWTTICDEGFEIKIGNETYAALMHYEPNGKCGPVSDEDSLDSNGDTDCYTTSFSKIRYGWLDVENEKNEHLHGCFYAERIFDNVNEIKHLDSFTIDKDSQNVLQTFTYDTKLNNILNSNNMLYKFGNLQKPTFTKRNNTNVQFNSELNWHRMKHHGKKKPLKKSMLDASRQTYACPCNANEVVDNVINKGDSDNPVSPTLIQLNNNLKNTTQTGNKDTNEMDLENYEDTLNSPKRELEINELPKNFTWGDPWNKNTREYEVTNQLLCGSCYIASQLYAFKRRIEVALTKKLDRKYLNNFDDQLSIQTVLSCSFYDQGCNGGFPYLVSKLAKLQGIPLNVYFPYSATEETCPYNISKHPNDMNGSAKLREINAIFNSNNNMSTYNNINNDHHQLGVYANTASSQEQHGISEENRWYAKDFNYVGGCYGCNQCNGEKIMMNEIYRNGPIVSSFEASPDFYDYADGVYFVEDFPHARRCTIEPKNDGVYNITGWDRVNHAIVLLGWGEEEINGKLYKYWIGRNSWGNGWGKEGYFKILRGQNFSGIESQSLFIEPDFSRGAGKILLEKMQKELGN

Compound	% Inhibition @ 10 uM [%]
CCOC(=O)N1C2Sc3cccnc3C1Sc1ncccc12 (centres unmarked)	0.367
CC1CCc2c(sc(NC(=O)CCCC(=O)O)c2C(N)=O)C1 (centres unmarked)	-2.54
COC(=O)C1=C(C)NC(=O)CC1c1ccc(F)cc1 (centres unmarked)	2.22
CC(C(=O)O)N1C(=O)C2C3c4ccccc4C(c4ccccc43)C2C1=O (centres unmarked)	0.76
COc1cccc(CN2CCSCC2)c1	1.63
O=C(CSc1ccccc1)Nc1cccc(O)c1	-3.43
O=C(NC1CCCCC1)c1scc2c1CCCC2	1.82
O=C(Nc1ccc(Cl)cn1)c1cccc(S(=O)(=O)N2CCCCCC2)c1	1.26
CNC(=O)/C(=C\c1ccc(OC)cc1)NC(=O)c1ccccc1Br	4
CCn1c(-c2ccccc2Cl)nc2ccccc21	-0.551
O=C(NCCO)/C(=C/c1ccccc1)NC(=O)c1cccc(Br)c1	-0.413
NS(=O)(=O)c1ccc(NC(=O)CCC2CCCC2)cc1	-2.94
COc1cc(S(=O)(=O)N2CCC(C(N)=O)CC2)c(OC)cc1Cl	-4.53
O=C1CC(C(F)(F)F)=Nc2ccccc2N1	0.937
C=CCc1ccccc1N(CC(=O)O)C(=O)c1ccccc1	-2.39
Cc1cccc(CCNC(=O)c2cc3c(C)nc4ccccc4c3o2)c1	-5.25
O=C(O)CCCCCn1c(SCc2cc(=O)oc3cc(O)ccc23)nc2ccsc2c1=O	8.3
O=C(NC(=O)C(F)(F)F)Nc1ccc(S(=O)(=O)Nc2ccccn2)cc1	-5.51
O=C1Nc2c(cnn2Cc2ccccc2)C(c2ccc(Cl)cc2)N1 (centres unmarked)	-7.02
CCOC(=O)c1c(NC(=O)C(F)(F)F)sc(C)c1C	-0.294
Cc1cc(C)cc(NC(=O)C2CCCN2C(=O)C(C)(C)C)c1 (centres unmarked)	-3.19
CCN(CC)C(=O)c1c(F)cccc1F	4.33
O=S(=O)(NCc1ccc2c(c1)OCO2)c1ccc(-c2ccc(O)nn2)s1	4.9
COCCN1C(=O)c2ccc(C(=O)Nc3ccccc3C(=O)O)cc2C1=O	1.1
COCCCNC(=O)c1ccc(CS(=O)(=O)c2ccc(Br)cc2)o1	3.77
Cc1nc2cc(C(=O)N3CCCCC3)ccc2n1-c1ccc(F)cc1F	2.8

Compound	% Inhibition @ 10 uM [%]
O=C(c1ccc(CS(=O)c2ccc(Cl)cc2)o1)N1CCOCC1 (centres unmarked)	-1.28
COc1ccc(N2C(=O)C3CC=CCC3C2=O)cc1 (centres unmarked)	-6.37
CCCCOc1ccc(-c2ccc(C#N)cc2)cc1	-1.25
Cc1ccc2c(=O)cc(C(=O)Nc3nc4ccc(F)cc4s3)oc2c1C	-3.24
Cc1ccccc1S(=O)(=O)Cc1ccc(C(=O)N2CCN(C3CCCCC3)CC2)o1	0.51
O=C(NCCn1ccc2ccccc21)c1ccccc1Cl	-1.62
CC(C)Cn1cc(NC(=O)N2CCOCC2)c2ccccc2c1=O	-5.94
CCOc1ccc(C2CC(c3ccc(C)c(C)c3)Nc3nnnn32)cc1 (centres unmarked)	-1.48
COc1cccc(Nc2nc(-c3ccc(S(=O)(=O)N4CCCC4)cc3)cs2)c1	-7.57
Nc1cc(O)nc(SCC(=O)N2CCc3ccccc32)n1	2.3
O=C(O)CCCC(=O)Nc1cccc(C(F)(F)F)c1	2.38
Cn1ncc([N+](=O)[O-])c1C(=O)NC1CCCCC1	3.31
CCN(CC)S(=O)(=O)c1ccc(NC(=O)COc2ccc(Cl)cc2)cc1	-4.82
Cn1c2ccccc2c2cnn(CC(=O)NCCCN3CCC(N4CCCCC4)CC3)c(=O)c21	-3.9
NC(=O)C1CCN(c2nc(-c3cccc(Cl)c3)c3c(n2)-c2ccccc2OC3)CC1	2.32
O=C(NCCc1ccc(Cl)cc1)c1nc(-c2ccncc2)no1	-6.34
CCOc1ccccc1NC(=O)c1cc(OC)c(OC)c(OC)c1	-0.872
COc1ccc(Cn2c(S)nc3ccccc32)cc1	-5.34
Cc1nn(-c2ccccc2)c(-n2cccc2)c1C(=O)N1CCC(C(=O)N2CCOCC2)CC1	-1.58
O=C(CN1C(=O)c2ccccc2C1=O)Nc1ccccc1C(=O)N1CCCCC1	5.63
COC(=O)c1c2c(nc3ccccc13)CCC2	0.205
Cc1cc(Cl)cc(Cl)c1OCC(=O)Nc1ccccn1	7.73
CC(=O)Nc1c(O)nc(SCC(=O)Nc2nnc(CC(C)C)s2)nc1O	-3.74
O=c1c2nccnc2nc(SCc2cccc(F)c2)n1CCc1ccccc1	1.39
COc1ccc2c(c1)nc(CO)n2C	0.778
O=C(O)COc1ccccc1/C=C1\Sc2ccccc2C1=O	4.28

Compound	% Inhibition @ 10 uM [%]
CCOC(=O)c1[nH]c2ccccc2c1NC(C)=O	6.43
Cc1ccc(CNC(=O)C2CCN(S(=O)(=O)c3c[nH]cn3)CC2)cc1	-0.499
Cc1ccc(C(=O)NCc2ccco2)cc1	3
CN(C)c1c2ccccc2nc2c(F)c(F)c(F)c(F)c12	2.46
Cc1nnc(NC(=O)CSc2nnc(CNC(=O)c3c(F)cccc3Cl)o2)s1	-1.58
N#CC1=C(N)N(c2nc[nH]n2)C2=C(C(=O)CC(c3ccccc3)C2)C1c1ccccc1Cl (centres unmarked)	0.726
Cc1ccsc1CN(C)C1CCN(C)CC1	-2.03
COc1ccccc1C(=O)Nn1cnnc1	2.03
CCc1c(CN2CCN(c3ccccn3)CC2)csc1C	-5.74
COc1ccc(Cc2noc(COc3ccc4ccccc4c3)n2)cc1	-8.64
CCOC(=O)C1=C(O)/C(=C\c2ccc(Cl)cc2Cl)N=C1C	7.35
O=C1CC(C(=O)Nc2ccc(C(=O)O)cc2)SC(Nc2ccccc2)=N1 (centres unmarked)	-6.05
C[C@@H](C[C@H](NC(=O)c1ccc(-c2cc(C(=O)O)ccc2Cl)cc1)C(=O)NC1(C#N)CCN(CC(F)(F)F)CC1)c1ccccc1	-6.56
COc1ccccc1/C=C1/C(=N)N2C(c3ccccc3)=CSC2=NC1=O	-3.75
OC1(c2ccc3ccccc3n2)COc2ccccc2O1 (centres unmarked)	5.64
CC1CCN(C(=O)CNC(=O)c2cccs2)CC1	2.05
C#CCOc1c(Cl)cc(/C=C2/NC(=O)NC2=O)cc1Cl	-1.25
CC1CN(S(=O)(=O)c2ccc(NC(=O)c3ccccc3Cl)cc2)CC(C)O1 (centres unmarked)	-1.78
CCCc1c(O)nc(SCCN(CC)CC)n(C(=O)c2ccccc2)c1=O	-6.6
CCNc1sc(S(C)(=O)=O)nc1S(=O)(=O)c1ccc(Cl)cc1	-0.522
CNS(=O)(=O)c1cn(CC(=O)N2CCCC(C)C2)cc1S(=O)(=O)NC (centres unmarked)	-0.518
Cc1ccccc1C(=O)N(Cc1ccco1)C1CCS(=O)(=O)C1 (centres unmarked)	0.569
CN(C)C(=O)CS(=O)(=O)c1ccc2ccccc2c1	-0.105
Cc1cccc(-n2c(S)nnc2CN2CCSCC2)c1	5.16
O=C(COc1ccc(S(=O)(=O)N2CCCC2)cc1)N1CCN(c2ccccc2F)CC1	0.361
O=S(=O)(c1ccc(Cl)cc1)N1CCC(Cc2ccccc2)CC1	-3.44

Compound	% Inhibition @ 10 uM [%]
CC(CCc1ccccc1)Nc1cnn(C23CC4CC(CC(C4)C2)C3)c(=O)c1Cl (centres unmarked)	-2.27
Oc1nc2ccccc2n1Cc1ccccc1Cl	-5.92
CC(NS(=O)(=O)c1ccc(OCC(=O)Nc2ccccc2F)cc1)c1ccccc1 (centres unmarked)	-1.36
CCOc1ccc2nc(NC(=O)c3ccc(C)o3)sc2c1	-1.42
COc1ccc(C2(CNC(=O)C(=O)NCCO)CCCC2)cc1OC	0.00706
Cc1ccc(-c2[nH]nc3c2C(c2cccc(O)c2)C(C#N)=C(N)O3)cc1 (centres unmarked)	2.26
NS(=O)(=O)c1ccc(CNC(=O)c2cc(-c3ccc(Cl)s3)nc3ccccc23)cc1	-4.67
CNC1=NC(=O)CC(C(=O)Nc2ccc3ccccc3c2)S1 (centres unmarked)	-0.864
O=C(c1ccc2nc(N3CCOCC3)sc2c1)N1CCN(c2ncccn2)CC1	4.22
O=C(C1CCCO1)N1CCN(c2ccccc2)CC1 (centres unmarked)	2.27
COc1ccccc1C(=O)Nc1nc2nccc(C)n2n1	3.66
COc1ccc(OCc2nnc(-c3ccccc3Cl)o2)cc1	-2.99
CCOC(=O)c1c(C)c(C(=O)NCCCOC)c(C)n1CC	3.32
COc1cc2nc(SCC(=O)Nc3cc(C)[nH]n3)n3nc(-c4ccccc4)nc3c2cc1OC	1.23
CCN(CC)CCNC1CCN(C)CC1	-0.0908
CCN(CC)CCNC(=O)c1ccc(CS(=O)(=O)Cc2cccc(Cl)c2)o1	-4.53
CC(=O)N1CCc2cc3nc(C)cc(C)c3cc21	-4.52
O=C(CCn1ccc2cc(S(=O)(=O)N3CCCCC3)ccc21)N1CCN(C(=O)c2ccco2)CC1	4.16
c1ccc(-c2nnnn2-c2ccncc2)cc1	-4.21
Cc1cc(C)cc(Oc2coc3cc(OCC(=O)NCc4ccccc4)ccc3c2=O)c1	9.49
CC1=NNC(=O)C1c1c[nH]c2ccccc12 (centres unmarked)	-2.36
O=C(CN1C(=O)c2ccccc2S1(=O)=O)NCc1ccc(Cl)cc1	2
CCC(=O)c1c(C)cc(C)nc1N1CCOCC1	5.66
c1ccc(CNC2CCCc3c2[nH]c2ccc(-c4ccccc4)cc32)cc1 (centres unmarked)	-2.55
COc1ccc(S(=O)(=O)Nc2cccc(-c3csc(C)n3)c2)cc1OC	-9.29
Cc1ccc(-n2nc(C)c(/C=N/c3ccc(S(=O)(=O)N(C)C)cc3)c2O)c(C)c1	-0.864
